Hit rate of the full screen: of about 310,000 compounds, about 2,200 (0.71%) showed an effect of 50% or more. The effect is printed as a negative number. This is one part of the list.
molecular target: human ether-à-go-go-related gene (hERG) potassium channel (human, UniProt Q12809); test: primary screen, population patch clamp on CHO cells stably expressing hERG
Sequence (Q12809 whole entry, looked up): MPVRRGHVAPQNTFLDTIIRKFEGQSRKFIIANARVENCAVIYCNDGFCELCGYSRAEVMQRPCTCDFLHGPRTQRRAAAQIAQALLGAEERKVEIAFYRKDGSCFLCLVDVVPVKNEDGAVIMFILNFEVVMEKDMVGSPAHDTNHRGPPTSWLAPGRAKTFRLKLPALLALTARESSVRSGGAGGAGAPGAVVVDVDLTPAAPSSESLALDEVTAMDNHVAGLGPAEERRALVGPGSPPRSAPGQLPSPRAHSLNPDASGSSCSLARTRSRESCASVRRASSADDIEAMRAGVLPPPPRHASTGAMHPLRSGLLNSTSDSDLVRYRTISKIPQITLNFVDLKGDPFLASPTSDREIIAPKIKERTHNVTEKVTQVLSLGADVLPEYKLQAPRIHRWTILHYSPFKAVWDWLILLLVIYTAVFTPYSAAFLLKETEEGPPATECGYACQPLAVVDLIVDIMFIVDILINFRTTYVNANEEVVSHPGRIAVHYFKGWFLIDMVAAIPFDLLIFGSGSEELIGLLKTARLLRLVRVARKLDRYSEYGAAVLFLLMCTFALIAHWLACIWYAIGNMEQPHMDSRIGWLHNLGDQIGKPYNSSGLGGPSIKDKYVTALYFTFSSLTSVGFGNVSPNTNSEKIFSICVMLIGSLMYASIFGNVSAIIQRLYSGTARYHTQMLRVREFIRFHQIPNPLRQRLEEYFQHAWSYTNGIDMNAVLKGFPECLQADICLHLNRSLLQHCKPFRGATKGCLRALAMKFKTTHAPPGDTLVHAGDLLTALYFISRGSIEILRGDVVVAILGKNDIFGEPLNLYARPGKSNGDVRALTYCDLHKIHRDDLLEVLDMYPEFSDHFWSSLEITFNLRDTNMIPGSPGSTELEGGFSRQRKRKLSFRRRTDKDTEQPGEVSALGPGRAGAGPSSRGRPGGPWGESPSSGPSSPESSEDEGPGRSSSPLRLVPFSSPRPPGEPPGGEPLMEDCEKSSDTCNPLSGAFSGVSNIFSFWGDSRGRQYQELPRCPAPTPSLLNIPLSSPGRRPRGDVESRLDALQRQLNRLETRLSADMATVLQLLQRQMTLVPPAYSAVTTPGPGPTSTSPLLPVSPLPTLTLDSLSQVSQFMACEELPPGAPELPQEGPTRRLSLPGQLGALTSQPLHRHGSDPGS

Row | Structure (SMILES) | hERG current change (%, negative = inhibition) at 1uM
1 | O=C(CSc1nnc(-c2cccs2)n1Cc1ccccc1)NCc1ccc2c(c1)OCO2 | 2%
2 | O=C(CN1C(=O)NC2(CCCC2)C1=O)OCCOc1ccc(Br)cc1 | 5.87%
3 | CCOc1ccc(C(=O)NC2CC3CCCC(C2)N3CC(C)C)cc1 (stereo not shown) | -17.2%
4 | COc1cccc(CC2(CO)CCCN(Cc3c(C)cc(C)cc3-n3cccn3)C2)c1 (stereo not shown) | -93.1%
5 | CSc1ccc(C(=O)C2CCCN(Cc3ccn[nH]3)C2)cc1 (stereo not shown) | 9.13%
6 | O=C(NC(=S)N1CCCC1)c1cccc([N+](=O)[O-])c1 | 17.1%
7 | Cc1cc(O)c(NC(=O)c2cc([N+](=O)[O-])ccc2Cl)cc1C | 5.91%
8 | O=C(NCCCC(=O)N1CCCCC1)c1ccc(Cl)cc1 | 10.6%
9 | NC(=O)c1sc2nc(-c3ccco3)ccc2c1N | 13%
10 | Cc1ccccc1CC1SC(N=C(N)N)=NC1=O (stereo not shown) | 11.4%
11 | OC1CCN(C(c2ccc3ncccc3c2)c2nnnn2C2CCCCC2)CC1 (stereo not shown) | -5.3%
12 | O=C(CSc1nc2ccccc2s1)Nc1nccs1 | 10.9%
13 | Cc1cc2oc(=O)cc(CN(C)Cc3ccccc3F)c2cc1Cl | 14.6%
14 | CN(CCCN1c2ccccc2CCc2ccccc21)CC(=O)c1ccc(Cl)cc1.Cl | 7.83%
15 | O=C(CSc1nncc(=O)[nH]1)NC1CCCCC1 | 19.2%
16 | Cc1noc(C)c1S(=O)(=O)N(CC(=O)N1CCCCCC1)c1ccc(C(C)C)cc1 | 2.73%
17 | Cc1ccc(C)c(NC(=O)CCN2CC(C)CC(C)C2)c1 (stereo not shown) | 17.5%
18 | COc1ccccc1/C=C1/SC(=O)N(CCC(=O)Nc2ccc(S(=O)(=O)Nc3nccs3)cc2)C1=O | 4.27%
19 | CN(C)S(=O)(=O)c1ccc(C(=O)NCc2nnc(SCC(=O)NCc3ccco3)o2)cc1 | 10.3%
20 | CSc1nc(-c2ccccc2)c2cc(Cl)ccc2n1 | 17.1%
21 | CCN(CC)CC#CCC(C)(c1ccccc1)c1ccccc1.Cl | -13.7%
22 | O=[N+]([O-])c1cccc(N/N=C/c2ccc(N3CCOCC3)cc2)c1 | 12.4%
23 | O=C(CCCN1C(=O)c2cccc3cccc(c23)C1=O)NC1CCS(=O)(=O)C1 (stereo not shown) | 23.1%

Row | Structure (SMILES) | hERG current change (%, negative = inhibition) at 1uM
24 | Cc1sc2nc(CN(Cc3cccs3)C(=O)C3CC3)[nH]c(=O)c2c1C | 3.78%
25 | CCOC(=O)c1c(NC(=O)CSc2nncs2)sc(C)c1C | 17.3%
26 | COc1cc2[nH]c(=S)n(Cc3ccc(C)o3)c(=O)c2cc1OC | 2.05%
27 | CC(C)NCC(O)COc1ccc(CC(N)=O)cc1 (stereo not shown) | 14.4%
28 | O=C(Nc1ccc(N2CCOCC2)cc1)c1ccc(S(=O)(=O)NCc2ccco2)cc1 | 12.5%
29 | O=C(CC1NCCN(Cc2ccccc2)C1=O)Nc1ccc(Cl)cc1 (stereo not shown) | 11.7%
30 | COc1cccc(CN2CC(C(=O)NCCN3CCOC3=O)CCC2=O)c1 (stereo not shown) | 5.89%
31 | CCOc1ccc(-c2c(C(=O)N/N=C/c3ccc(C)s3)nnn2-c2nonc2N)cc1 | 9.41%
32 | COC(=O)CN1C(=S)N(c2ccc(OC)cc2)C(=O)C1CC(=O)Nc1ccc(F)cc1 (stereo not shown) | 8.67%
33 | C[C@H]1CN=C(N(C)C)N1CCc1ccccc1 | 14.6%
34 | CCOC(=O)C1=C(C)Nc2ccccc2N/C1=N\S(=O)(=O)c1cc(C(=O)O)ccc1Cl | 12.9%
35 | O=C(CSc1nccn1-c1ccc(F)cc1)NCc1ccc(F)cc1 | -4.87%
36 | Cc1cc(C(=O)O)ccc1-c1ccc(/C=N/n2cnnc2)o1 | 12.6%
37 | O=C(c1ccco1)N1CCN(C(=O)c2cc3ccccc3oc2=O)CC1 | -2.46%
38 | Cc1nonc1-c1nc(-c2nonc2N)n[nH]1 | 5.6%
39 | COc1ccccc1NS(=O)(=O)c1ccc2oc(=O)ccc2c1 | 14.1%
40 | CCC(=O)C1=C(O)C(c2cccc(Oc3ccccc3)c2)CCC1=O (stereo not shown) | -3.24%
41 | Cc1nc(-c2nc(-c3c(C(=O)NNC(=O)Nc4cccc(Cl)c4)noc3C)cs2)cs1 | 9.91%
42 | CCN(CC)S(=O)(=O)c1ccc(C)c(C(=O)Oc2cccc(-c3cnc4ccccc4n3)c2)c1 | 17%
43 | Cc1cc(=O)oc(C)c1C(=O)NCC1COc2ccccc2O1 (stereo not shown) | 12.7%
44 | O=C(c1ccc(Cl)cc1)N1CCC(N2CCC(C(=O)N3CCOCC3)CC2)CC1 | -7.04%
45 | CC(C)(C)NC(=O)C(c1ccncc1)N(C(=O)Cn1nnc(-c2ccc(F)cc2)n1)c1ccc(F)cc1 (stereo not shown) | 10.5%
46 | CCOc1ccc(C(C)NC(=O)Cc2ccccc2F)cc1OCC (stereo not shown) | 10.3%

Row | Structure (SMILES) | hERG current change (%, negative = inhibition) at 1uM
47 | c1ccc(-c2nc(-c3ccncc3)n[nH]2)nc1 | 3.47%
48 | COc1ccc(-c2nn(Cc3ccccc3)cc2C(=O)N2CCN(c3ncccn3)CC2)cc1OC | -6.93%
49 | C=CCNC(=O)c1c(-c2c(F)cccc2Cl)noc1C | 5.24%
50 | COc1cccc(CNC(=O)Cn2c(=O)n(CCC(=O)N3CCCCC3)c(=O)c3sccc32)c1 | 15.3%
51 | CCN(Cc1cnn(C)c1)C(=O)c1cc(COc2cc(C)c(Cl)c(C)c2)on1 | -5.2%
52 | O=C(c1ccccc1)c1c(O)nc(-c2ccccc2)n(-c2ccccc2)c1=O | 16.7%
53 | CCCCc1nc2sc3c(SCC(=O)NCc4ccco4)ncnc3c2c2c1CCC2 | 15.6%
54 | O=C(Nc1ccccc1)N1CCc2ccccc2C1 | 17.7%
55 | CCOc1cc(NC(=S)NCC2CCCO2)c(OCC)cc1NC(=O)CC (stereo not shown) | -6.14%
56 | Nc1cc(N2CCCC2)ccc1[N+](=O)[O-] | 13%
57 | FC(F)(F)c1ccc(-c2nc(=S)[nH][nH]2)cc1 | 23.9%
58 | COc1ccc(S(=O)(=O)N(Cc2cccs2)C2CCCC2)cc1 | 6.03%
59 | CC1(C)CC(NC(=S)NCc2ccc3c(c2)OCO3)CC(C)(C)N1 | 15%
60 | Cc1ccc(OCCC(=O)OCC(=O)N2CCN(S(=O)(=O)c3ccc(C)cc3C)CC2)cc1 | 14.7%
61 | N#CC1(NC(=O)CN2CCc3ccccc3C2)CCCC1 | 15.3%
62 | NC(CC(=O)O)C1CCCCC1 (stereo not shown) | 18.5%
63 | CSC1=N/C(=C/c2cccnc2)C(=O)N1Cc1ccccc1 | 3.96%
64 | Cc1ccc(-c2cc(C(=O)N3CCOCC3)no2)cc1 | -0.161%
65 | O=S(=O)(c1ccc2c(c1)OCCO2)N1CCN(Cc2ccccc2)CC1 | 10.2%
66 | COc1ccc(C(=O)c2ccc(Cl)c([N+](=O)[O-])c2)cc1 | 14.2%
67 | O=C(NCC1CCCO1)c1ccccc1-c1nc(-c2ccc(F)cc2)no1 (stereo not shown) | -3.92%
68 | C=CCc1c(C)nn(CC(=O)O)c1-c1ccccc1 | 12%
69 | COCCn1nnnc1C(c1cc(OC)ccc1OC)N1CCc2ccccc2C1.Cl (stereo not shown) | 13.6%

Row | Structure (SMILES) | hERG current change (%, negative = inhibition) at 1uM
70 | Cc1ccn(CC(=O)NC2CCCN(Cc3ccc(CC(C)C)cc3)C2)n1 (stereo not shown) | -9.35%
71 | C=CCOC(=O)C1=C(C)NC(=O)NC1c1ccc(OCC)cc1 (stereo not shown) | 7.86%
72 | CN(C)CCCCNCCCNC(=O)/C=N\O | 21.7%
73 | CCOc1cc(N2CCOCC2)c(OCC)cc1NC(=O)c1ccc(NC(C)=O)cc1 | 9.3%
74 | COc1ccc(C#Cc2ccc3c(=O)c4ccccc4n(C)c3c2)cc1 | 16.1%
75 | CC1CN(C(=O)c2cccc(S(=O)(=O)Nc3ccc(Cl)cc3)c2)CC(C)O1 (stereo not shown) | 17.9%
76 | CCOC(=O)c1[nH]c2ccc(Cl)cc2c1-c1ccccc1 | 20.4%
77 | CCCC(NC(=O)C(C)Sc1nnnn1C1CC1)c1ccccc1 (stereo not shown) | 15.2%
78 | CCC(CC)NC(=O)CCc1nc2ccccc2c(=O)[nH]1 | 20.9%
79 | COc1cccc(Nc2ccc(Nc3cccc(OC)c3)nn2)c1 | 10.7%
80 | CCOc1ccc(S(=O)(=O)NCCC(=O)N(C)Cc2cccs2)cc1 | -1.83%
81 | Cc1nn(C)c(=S)n1-c1ccc(Cl)cc1 | 7.75%
82 | Cc1ccccc1N(CC(=O)N1CCc2ccccc2C1)S(C)(=O)=O | 13.8%
83 | CC(=O)c1ccc(N2CCN(C(=O)Nc3ccc(C(C)C)cc3)CC2)cc1 | -3.02%
84 | CCOC(=O)C(=O)N(Nc1ccccc1C)c1ccccc1C | 8.65%
85 | CCCc1cc(=O)oc2cc(C)cc(OCC(=O)N3CCC(C(=O)O)CC3)c12 | 8.73%
86 | CC1(C)CC(=O)C2=C(C1)OC(c1cccs1)C(C#N)=C2N (stereo not shown) | -0.224%
87 | COc1ccc(OCCn2cnc(Cl)c2Cl)cc1 | 7.81%
88 | CC(=O)Nc1ccc(C(=O)Nc2ccc(S(=O)(=O)NCC3CCCO3)cc2)cc1 (stereo not shown) | 11.5%
89 | N#CCOC(=O)C1CSC2(c3ccc(Br)cc3)CCC(=O)N12 (stereo not shown) | 12.3%
90 | O=C(NCCC1CCCCN1S(=O)(=O)c1ccc(F)cc1)C(=O)NCc1cccnc1 (stereo not shown) | 1.77%
91 | COc1cc2cc(CN(Cc3cccs3)C(=S)Nc3ccc(C)cc3)c(=O)[nH]c2cc1OC | 20.3%
